Assay results reported in the supplement of paper PMC9151546.
Many values rest on one well or one pass, so single values are uncertain.

Columns and labels:
[1] = test system: CHO-K1; experiment: micronucleus frequency (% of nucleated events); higher = more micronuclei (genotoxic)
[2] = test system: CHO-K1; experiment: relative survival (nuclei to bead ratio vs DMSO control) (% of vehicle control); higher = more surviving cells
Method: (§1)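 Flow-cytometric in vitro micronucleus assay (Litron MicroFlow) in CHO-K1 cells in 96-well plates, 19 concentrations (4.5-200 µM, n=1 per concentration). Without S9, cells were exposed for 24 h and sampled at 48 h. With Aroclor 1254-induced rat liver S9, cells were exposed for 3-4 h and sampled at 27-28 h. Read-outs are %MN and %hypodiploid nuclei relative to nucleated events, and relative survival as the nuclei-to-bead ratio versus the 1% DMSO vehicle control (x100).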

[3] = test system: CHO-K1; experiment: hypodiploid nuclei frequency (% of nucleated events); higher = more hypodiploid events (aneugenic)
Method: as §1
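Throughout, for hypodiploid nuclei frequency (% of nucleated events): hypodiploid nuclei gated on a flow cytometer with 488 nm excitation after SYTOX Green staining, cultures at 37 °C, positive controls vinblastine without S9 and cyclophosphamide with S9.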
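Throughout, for micronucleus frequency (% of nucleated events): cells lysed with nuclei stained by SYTOX Green, then micronucleus-gated events counted against nucleated events by flow cytometry with 488 nm excitation.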
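Throughout, for relative survival (nuclei to bead ratio vs DMSO control): Lysed-cell nuclei stained with SYTOX Green and counted against counting beads by flow cytometry at 488 nm excitation, with vinblastine (no S9) and cyclophosphamide (plus S9) as positive controls.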

Nc1nc(Cl)nc2c1ncn2[C@H]1C[C@H](O)[C@@H](CO)O1 [Cladribine]
Conditions | hypodiploid nuclei frequency, [3] [%] | micronucleus frequency, [1] [%] | relative survival, [2]
concentration: 4.5 (µM), S9 metabolic activation: with S9, exposure time: 3-4 hours | 0.24 | 1.84 | 52.5
concentration: 4.5 (µM), S9 metabolic activation: without S9, exposure time: 24 hours | – | – | 34.6
concentration: 5.63 (µM), S9 metabolic activation: with S9, exposure time: 3-4 hours | 0.26 | 1.9 | 71
concentration: 5.63 (µM), S9 metabolic activation: without S9, exposure time: 24 hours | – | – | 29.8
concentration: 7.04 (µM), S9 metabolic activation: with S9, exposure time: 3-4 hours | 0.42 | 2.26 | 68.3
concentration: 7.04 (µM), S9 metabolic activation: without S9, exposure time: 24 hours | – | – | 30.4
concentration: 8.8 (µM), S9 metabolic activation: with S9, exposure time: 3-4 hours | 0.32 | 4.32 | 67
concentration: 8.8 (µM), S9 metabolic activation: without S9, exposure time: 24 hours | – | – | 39.7
concentration: 11 (µM), S9 metabolic activation: with S9, exposure time: 3-4 hours | 0.36 | 3.94 | 70.8
concentration: 11 (µM), S9 metabolic activation: without S9, exposure time: 24 hours | – | – | 35.8
concentration: 13.7 (µM), S9 metabolic activation: with S9, exposure time: 3-4 hours | 0.64 | 6.82 | 54
concentration: 13.7 (µM), S9 metabolic activation: without S9, exposure time: 24 hours | – | – | 35.9
concentration: 17.2 (µM), S9 metabolic activation: with S9, exposure time: 3-4 hours | 0.67 | 9.11 | 46.1
concentration: 17.2 (µM), S9 metabolic activation: without S9, exposure time: 24 hours | – | – | 36.5
concentration: 21.5 (µM), S9 metabolic activation: with S9, exposure time: 3-4 hours | 0.92 | 8.98 | 54.4
concentration: 21.5 (µM), S9 metabolic activation: without S9, exposure time: 24 hours | – | – | 33.9
concentration: 26.8 (µM), S9 metabolic activation: with S9, exposure time: 3-4 hours | 0.64 | 8.74 | 49.9
concentration: 26.8 (µM), S9 metabolic activation: without S9, exposure time: 24 hours | – | – | 36.5
concentration: 33.6 (µM), S9 metabolic activation: with S9, exposure time: 3-4 hours | 1.01 | 9.83 | 45.5
concentration: 33.6 (µM), S9 metabolic activation: without S9, exposure time: 24 hours | – | – | 35.1
concentration: 41.9 (µM), S9 metabolic activation: with S9, exposure time: 3-4 hours | – | – | 39.8
concentration: 41.9 (µM), S9 metabolic activation: without S9, exposure time: 24 hours | – | – | 34.2
concentration: 52.4 (µM), S9 metabolic activation: with S9, exposure time: 3-4 hours | – | – | 35.7
concentration: 52.4 (µM), S9 metabolic activation: without S9, exposure time: 24 hours | – | – | 34
concentration: 65.5 (µM), S9 metabolic activation: with S9, exposure time: 3-4 hours | – | – | 38.1
concentration: 65.5 (µM), S9 metabolic activation: without S9, exposure time: 24 hours | – | – | 35.7
concentration: 81.9 (µM), S9 metabolic activation: with S9, exposure time: 3-4 hours | 0.38 | 5.92 | 41.6
concentration: 81.9 (µM), S9 metabolic activation: without S9, exposure time: 24 hours | 1 | 3.54 | 41.4
concentration: 102 (µM), S9 metabolic activation: with S9, exposure time: 3-4 hours | 0.54 | 6.31 | 47.5
concentration: 102 (µM), S9 metabolic activation: without S9, exposure time: 24 hours | 0.93 | 3.17 | 40.2
concentration: 128 (µM), S9 metabolic activation: with S9, exposure time: 3-4 hours | – | – | 35.2
concentration: 128 (µM), S9 metabolic activation: without S9, exposure time: 24 hours | – | – | 39.6
concentration: 160 (µM), S9 metabolic activation: with S9, exposure time: 3-4 hours | – | – | 39.4
concentration: 160 (µM), S9 metabolic activation: without S9, exposure time: 24 hours | – | – | 39.2
concentration: 200 (µM), S9 metabolic activation: with S9, exposure time: 3-4 hours | 0.54 | 3.88 | 54.1
concentration: 200 (µM), S9 metabolic activation: without S9, exposure time: 24 hours | – | – | 33

Oc1ccc(Cl)cc1Cc1ccccc1 [Clorophene]
Conditions | hypodiploid nuclei frequency, [3] [%] | micronucleus frequency, [1] [%] | relative survival, [2]
concentration: 4.46 (µM), S9 metabolic activation: with S9, exposure time: 3-4 hours | 0.16 | 1.38 | 181
concentration: 4.46 (µM), S9 metabolic activation: without S9, exposure time: 24 hours | 0.6 | 1.98 | 109
concentration: 5.57 (µM), S9 metabolic activation: with S9, exposure time: 3-4 hours | 0.16 | 1.34 | 144
concentration: 5.57 (µM), S9 metabolic activation: without S9, exposure time: 24 hours | 0.48 | 2.12 | 117
concentration: 6.97 (µM), S9 metabolic activation: with S9, exposure time: 3-4 hours | 0.28 | 1.8 | 142
concentration: 6.97 (µM), S9 metabolic activation: without S9, exposure time: 24 hours | 0.72 | 1.98 | 100
concentration: 8.71 (µM), S9 metabolic activation: with S9, exposure time: 3-4 hours | 0.16 | 1.3 | 133
concentration: 8.71 (µM), S9 metabolic activation: without S9, exposure time: 24 hours | 0.48 | 1.88 | 97.1
concentration: 10.9 (µM), S9 metabolic activation: with S9, exposure time: 3-4 hours | 0.2 | 1.64 | 112
concentration: 10.9 (µM), S9 metabolic activation: without S9, exposure time: 24 hours | 0.64 | 2.08 | 107
concentration: 13.6 (µM), S9 metabolic activation: with S9, exposure time: 3-4 hours | 0.24 | 1.32 | 147
concentration: 13.6 (µM), S9 metabolic activation: without S9, exposure time: 24 hours | 0.76 | 2.46 | 90.4
concentration: 17 (µM), S9 metabolic activation: with S9, exposure time: 3-4 hours | 0.16 | 1.68 | 120
concentration: 17 (µM), S9 metabolic activation: without S9, exposure time: 24 hours | 0.88 | 2.42 | 99
concentration: 21.3 (µM), S9 metabolic activation: with S9, exposure time: 3-4 hours | 0.18 | 1.56 | 111
concentration: 21.3 (µM), S9 metabolic activation: without S9, exposure time: 24 hours | 0.6 | 2.94 | 99.9
concentration: 26.6 (µM), S9 metabolic activation: with S9, exposure time: 3-4 hours | 0.44 | 1.84 | 174
concentration: 26.6 (µM), S9 metabolic activation: without S9, exposure time: 24 hours | 0.9 | 1.22 | 87.4
concentration: 33.2 (µM), S9 metabolic activation: with S9, exposure time: 3-4 hours | 0.36 | 1.52 | 154
concentration: 33.2 (µM), S9 metabolic activation: without S9, exposure time: 24 hours | 0.5 | 2.02 | 99
concentration: 41.5 (µM), S9 metabolic activation: with S9, exposure time: 3-4 hours | 0.34 | 1.6 | 107
concentration: 41.5 (µM), S9 metabolic activation: without S9, exposure time: 24 hours | 0.68 | 1.58 | 79.1
concentration: 51.9 (µM), S9 metabolic activation: with S9, exposure time: 3-4 hours | 0.44 | 2.32 | 95.9
concentration: 51.9 (µM), S9 metabolic activation: without S9, exposure time: 24 hours | 0.78 | 1.34 | 76.5
concentration: 64.9 (µM), S9 metabolic activation: with S9, exposure time: 3-4 hours | 0.26 | 2.06 | 112
concentration: 64.9 (µM), S9 metabolic activation: without S9, exposure time: 24 hours | 0.86 | 1.62 | 65.9
concentration: 81.1 (µM), S9 metabolic activation: with S9, exposure time: 3-4 hours | 0.24 | 2.16 | 75
concentration: 81.1 (µM), S9 metabolic activation: without S9, exposure time: 24 hours | 1.06 | 1.06 | 60.4
concentration: 101 (µM), S9 metabolic activation: with S9, exposure time: 3-4 hours | 0.32 | 1.7 | 79.2
concentration: 101 (µM), S9 metabolic activation: without S9, exposure time: 24 hours | 1.1 | 1.76 | 58.7
concentration: 127 (µM), S9 metabolic activation: with S9, exposure time: 3-4 hours | – | – | 20
concentration: 127 (µM), S9 metabolic activation: without S9, exposure time: 24 hours | 1.27 | 1.95 | 43.4
concentration: 158 (µM), S9 metabolic activation: with S9, exposure time: 3-4 hours | – | – | 0.29
concentration: 158 (µM), S9 metabolic activation: without S9, exposure time: 24 hours | – | – | 30.8
concentration: 198 (µM), S9 metabolic activation: without S9, exposure time: 24 hours | – | – | 9.58
